From patent US20260242486A1 (Biogen, published 2026) come the findings set out here.

The test has as its target T1, CLL1 protein (C-type lectin-like molecule 1, CLEC12A) expressed on cells (UniProt Q5QGZ9 1-265, limits assumed).
T1 construct: whole, on cells; also called CLL1 antigen; K562-CLL1 cells
T1 sequence (looked up): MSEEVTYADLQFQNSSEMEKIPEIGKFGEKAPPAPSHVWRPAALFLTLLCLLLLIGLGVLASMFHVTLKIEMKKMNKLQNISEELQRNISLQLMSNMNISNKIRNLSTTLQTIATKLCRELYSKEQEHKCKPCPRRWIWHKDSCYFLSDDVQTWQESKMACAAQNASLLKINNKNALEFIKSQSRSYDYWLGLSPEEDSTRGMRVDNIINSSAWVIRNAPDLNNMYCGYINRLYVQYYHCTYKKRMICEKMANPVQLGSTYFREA
Kind of test: flow cytometry, titration of FITC-CLL1-VHH-1-hFc on K562-CLL1 cells, double-reciprocal plot of MFI. Here is the method: (3) Forty microliters of the single-domain antibody FITC-CLL1-VHH-1-hFc at different gradient dilutions (specific groupings are shown in Table 3) were mixed with the above cells and incubated at room temperature in the dark for 10 min.

B1: anti-CLL1 single-domain antibody fused with hFc (CLL1-VHH-1-hFc) (Fc fusion)
chain: DVQLQESGGGLVQPGGSLRLSCAASGFTFGDYDMTWVRQAPGKGPEWVSAINSGGGSTYYADSVKGRFTISRDNAKNTLYLQMNSLKPEDTAVYYCATIDRLSTVVAGTYQPSDEYDYWGQGTQVTVSS[no letters for human IgG1 Fc with changes]
modifications: labelled with NHS-Fluorescein (FITC) for the flow cytometry assays (sites not given); unlabelled in the NK cell assays
notes: also called FITC-CLL1-VHH-1-hFc; VHH-hFc
What is called Kd is a measure of binding affinity in units of concentration. In the case of B1, the Kd was found to be 48.3 nM.
